According to the supplement of paper PMC7826260:
This is one part of the list. Viral Rep nickase domains cut single-stranded DNA in vitro at 3 µM enzyme and 37 °C for 1 h; the strands have 90 letters, of which the middle is given. Uncut reads are compared with the no-enzyme pool on a log2 scale; the lower, the more was cut; hits are not called. Counts are relative to all reads; where an enzyme cuts many sequences, the uncut ones exceed 0.

Key:
Assay in all cases: uncleaved DNA left, log2 of reads against the no-enzyme library (log2 ratio); higher = less cleavage (more negative = more Rep cleavage of the k-mer); sequences stand for … in CTCGTCCG…ACCGGAGA
[1] = system: T1, Rep nickase domain of Muscovy duck circovirus
T1 sequence (residues 1-111 of Rep, tag left off): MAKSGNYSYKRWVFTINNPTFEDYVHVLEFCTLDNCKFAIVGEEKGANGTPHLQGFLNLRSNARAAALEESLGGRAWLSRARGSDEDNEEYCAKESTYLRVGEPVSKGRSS
Method: (§1)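 A pool of 90-nt single-stranded DNAs with seven random bases just before the constant AC of the nick site (name = the seven bases) was cut by 3 µM recombinant His6-SUMO-tagged Rep nickase domain (300 nM DNA, 50 mM HEPES pH 8.0, 50 mM NaCl, 1 mM MnCl2, 1 h, 37 °C, three replicates). Uncut DNA was amplified and sequenced.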

[2] = system: T2, Rep nickase domain of banana bunchy top virus
T2 sequence (residues 1-94 of Rep, tag left off): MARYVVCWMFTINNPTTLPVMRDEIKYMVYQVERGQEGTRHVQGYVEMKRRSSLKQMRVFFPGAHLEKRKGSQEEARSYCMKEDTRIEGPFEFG
Method: as §1

[3] = system: T3, Rep nickase domain of cabbage leaf curl virus
T3 sequence (residues 1-116 of Rep, tag left off): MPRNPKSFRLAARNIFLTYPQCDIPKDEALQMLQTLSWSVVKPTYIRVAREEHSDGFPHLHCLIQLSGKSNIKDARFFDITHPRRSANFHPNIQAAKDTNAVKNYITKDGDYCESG
Method: as §1

[4] = system: T4, Rep nickase domain of chickpea chlorotic dwarf virus
T4 sequence (residues 1-124 of Rep, tag left off): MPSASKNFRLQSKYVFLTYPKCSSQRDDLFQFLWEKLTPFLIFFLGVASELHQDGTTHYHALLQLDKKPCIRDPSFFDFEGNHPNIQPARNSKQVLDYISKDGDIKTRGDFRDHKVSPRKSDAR
Method: as §1

[5] = system: T5, Rep nickase domain of faba bean necrotic yellows virus
T5 sequence (residues 1-98 of Rep, tag left off): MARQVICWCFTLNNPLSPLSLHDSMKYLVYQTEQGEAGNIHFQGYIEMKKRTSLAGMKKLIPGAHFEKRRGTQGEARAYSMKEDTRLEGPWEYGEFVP
Method: as §1

[6] = system: T6, Rep nickase domain of maize striate mosaic virus
T6 sequence (residues 1-117 of Rep, tag left off): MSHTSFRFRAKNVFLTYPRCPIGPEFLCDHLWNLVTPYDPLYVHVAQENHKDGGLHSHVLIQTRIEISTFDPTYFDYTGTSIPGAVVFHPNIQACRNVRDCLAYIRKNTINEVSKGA
Method: as §1

[7] = system: T7, Rep nickase domain of porcine circovirus 2
T7 sequence (residues 2-116 of Rep, tag left off): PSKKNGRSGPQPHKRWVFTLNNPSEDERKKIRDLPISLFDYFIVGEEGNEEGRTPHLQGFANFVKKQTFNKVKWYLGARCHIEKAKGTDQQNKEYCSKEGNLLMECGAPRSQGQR
Method: as §1

[8] = system: T8, Rep nickase domain of tomato golden mosaic virus
T8 sequence (residues 1-124 of Rep, tag left off): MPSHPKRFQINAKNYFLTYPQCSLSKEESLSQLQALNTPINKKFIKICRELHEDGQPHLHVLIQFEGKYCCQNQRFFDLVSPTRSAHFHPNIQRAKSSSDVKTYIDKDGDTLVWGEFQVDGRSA
Method: as §1

[9] = system: T9, Rep nickase domain of tomato yellow leaf curl virus
T9 sequence (residues 1-136 of Rep, tag left off): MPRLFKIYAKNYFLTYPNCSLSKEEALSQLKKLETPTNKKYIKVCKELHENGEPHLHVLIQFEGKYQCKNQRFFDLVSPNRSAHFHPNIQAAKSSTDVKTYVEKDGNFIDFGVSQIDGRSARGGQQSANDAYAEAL
Method: as §1

[10] = system: T10, Rep nickase domain of wheat dwarf virus
T10 sequence (residues 1-137 of Rep, tag left off): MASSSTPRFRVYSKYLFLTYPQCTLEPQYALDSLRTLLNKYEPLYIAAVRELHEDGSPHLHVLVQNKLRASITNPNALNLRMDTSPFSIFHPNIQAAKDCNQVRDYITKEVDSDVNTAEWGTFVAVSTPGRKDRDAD
Method: as §1

Sequence	uncleaved DNA left (log2) [1]	uncleaved DNA left (log2) [2]	uncleaved DNA left (log2) [3]	uncleaved DNA left (log2) [4]	uncleaved DNA left (log2) [5]	uncleaved DNA left (log2) [6]	uncleaved DNA left (log2) [7]	uncleaved DNA left (log2) [8]	uncleaved DNA left (log2) [9]	uncleaved DNA left (log2) [10]
TCGTCCT	-0.414	-0.286	-0.172	-1.89	-0.191	-0.302	-3.15	-0.276	-0.196	-0.184
CTTATGA	-0.0268	0.107	0.0979	0.191	0.0725	-0.883	0.0762	0.0569	0.162	0.0917
CCTGCTA	-0.144	-0.0613	-0.257	-1	0.0158	-0.899	0.0437	-0.0101	-0.144	-0.275
GGGAGGC	0.0803	0.0709	0.863	1.93	0.0414	2.23	0.228	-0.00706	-0.0865	0.0766
GCAGAGA	0.0371	0.152	0.579	1.21	0.0385	0.601	0.17	0.0732	0.0359	0.178
AAGTACC	-0.0944	-0.0656	0.00192	-0.267	-0.186	0.0633	-2.79	-0.0357	-0.137	-0.0388
AGATGAT	-0.0514	0.0464	0.277	1.08	0.0652	1.62	-1.25	0.202	-0.0581	-0.102
TTTGGGA	0.0929	0.125	-0.044	-0.0662	0.109	-0.619	0.221	0.00726	0.129	0.0277
AGACGAT	0.0231	0.101	0.387	0.827	-0.043	1.38	-0.0675	0.0914	-0.00877	0.0528
TGCAGAA	0.0453	-0.000809	0.0493	0.0368	0.155	-0.527	0.0471	0.103	0.000765	0.0763
TCGCATT	0.0304	-0.0282	-0.0891	-1.49	-0.0529	-0.381	-1.13	-0.03	0.0649	0.158
TTGCGCA	0.0194	0.00458	-0.781	0.00347	-0.00841	-0.714	0.142	-0.0473	0.0484	-0.0975
AGCGCTT	0.0708	0.0982	0.086	0.458	-0.0346	1.51	0.0617	0.0761	-0.047	0.0275
ACAGGCA	0.0721	0.0728	-0.418	-0.625	0.0346	-0.885	0.164	0.0297	0.143	0.0215
GACCTAA	0.165	0.0864	0.227	0.356	0.116	0.551	-0.0978	0.00819	0.127	0.00387
